What all share (test): glycan array binding signal (z-score within array); higher = stronger binding
Conditions in all cases: glycan notation: IUPAC condensed, linker removed

The target in experiment [1] is Gal(b1-4)GlcNAc(b1-3)Gal(b1-4)GlcNAc(b1-3)Gal(b1-4)GlcNAc(b1-3)Gal(b1-4)GlcNAc(b1-2)[Gal(b1-4)GlcNAc(b1-3)Gal(b1-4)GlcNAc(b1-3)Gal(b1-4)GlcNAc(b1-3)Gal(b1-4)GlcNAc(b1-6)]Man(a1-6)[Gal(b1-4)GlcNAc(b1-3)Gal(b1-4)GlcNAc(b1-3)Gal(b1-4)GlcNAc(b1-3)Gal(b1-4)GlcNAc(b1-2)Man(a1-3)]Man(b1-4)GlcNAc(b1-4)[Fuc(a1-6)]GlcNAc. A digest of the protocol: (§1)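 The binding signal is a Z-score computed within each array and averaged over linkers. Arrays of the same protein sequence at different concentrations or buffers were also averaged together. Data originate from 3228 arrays in the Consortium for Functional Glycomics database, kept only where the protein sequence was available.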

In experiment [2] the target is Gal(b1-4)GlcNAc(b1-3)Gal(b1-4)GlcNAc(b1-3)Gal(b1-4)GlcNAc(b1-3)Gal(b1-4)GlcNAc(b1-3)Gal(b1-4)GlcNAc(b1-2)Man(a1-3)[Gal(b1-4)GlcNAc(b1-3)Gal(b1-4)GlcNAc(b1-3)Gal(b1-4)GlcNAc(b1-3)Gal(b1-4)GlcNAc(b1-3)Gal(b1-4)GlcNAc(b1-2)Man(a1-6)]Man(b1-4)GlcNAc(b1-4)GlcNAc. A digest of the protocol:
as §1

The target in experiment [3] is Gal(b1-4)GlcNAc(b1-3)Gal(b1-4)GlcNAc(b1-3)Gal(b1-4)GlcNAc(b1-3)Gal(b1-4)GlcNAc(b1-3)Gal(b1-4)GlcNAc(b1-2)Man(a1-3)[Gal(b1-4)GlcNAc(b1-3)Gal(b1-4)GlcNAc(b1-3)Gal(b1-4)GlcNAc(b1-3)Gal(b1-4)GlcNAc(b1-3)Gal(b1-4)GlcNAc(b1-2)Man(a1-6)]Man(b1-4)GlcNAc(b1-4)[Fuc(a1-6)]GlcNAc. The gist of the method:
as §1

Experiment [4] has as its target Gal(b1-4)GlcNAc(b1-3)Gal(b1-4)GlcNAc(b1-3)Gal(b1-4)GlcNAc(b1-3)Gal(b1-4)GlcNAc(b1-3)Gal(b1-4)GlcNAc(b1-2)[Gal(b1-4)GlcNAc(b1-3)Gal(b1-4)GlcNAc(b1-3)Gal(b1-4)GlcNAc(b1-3)Gal(b1-4)GlcNAc(b1-3)Gal(b1-4)GlcNAc(b1-6)]Man(a1-6)[Gal(b1-4)GlcNAc(b1-3)Gal(b1-4)GlcNAc(b1-3)Gal(b1-4)GlcNAc(b1-3)Gal(b1-4)GlcNAc(b1-3)Gal(b1-4)GlcNAc(b1-2)Man(a1-3)]Man(b1-4)GlcNAc(b1-4)[Fuc(a1-6)]GlcNAc. The gist of the method:
as §1

Experiment [5] has as its target Gal(b1-4)GlcNAc(b1-3)Gal(b1-4)GlcNAc(b1-3)Gal(b1-4)GlcNAc(b1-3)Gal(b1-4)GlcNAc(b1-3)Gal(b1-4)GlcNAc(b1-3)Gal(b1-4)GlcNAc(b1-2)Man(a1-3)[Gal(b1-4)GlcNAc(b1-3)Gal(b1-4)GlcNAc(b1-3)Gal(b1-4)GlcNAc(b1-3)Gal(b1-4)GlcNAc(b1-3)Gal(b1-4)GlcNAc(b1-3)Gal(b1-4)GlcNAc(b1-2)Man(a1-6)]Man(b1-4)GlcNAc(b1-4)GlcNAc. The gist of the method: as §1
The target of experiment [6] is Gal(b1-4)GlcNAc(b1-3)Gal(b1-4)GlcNAc(b1-3)GalNAc. The gist of the method: as §1
The target in experiment [7] is Gal(b1-4)GlcNAc(b1-3)Gal(b1-4)GlcNAc(b1-3)[Gal(b1-4)GlcNAc(b1-3)Gal(b1-4)GlcNAc(b1-6)]GalNAc. The gist of the method: as §1
The target of experiment [8] is Gal(b1-4)GlcNAc(b1-3)Gal(b1-4)GlcNAc(b1-6)[Gal(b1-3)]GalNAc. The gist of the method:
as §1

For experiment [9], the target named is Gal(b1-4)GlcNAc(b1-3)Gal(b1-4)[Fuc(a1-3)]GlcNAc(b1-3)Gal(b1-4)[Fuc(a1-3)]GlcNAc. A digest of the protocol: as §1
Experiment [10] concerns the target Gal(b1-4)GlcNAc(b1-3)GalNAc. A digest of the protocol:
as §1

The target in experiment [11] is Gal(b1-4)GlcNAc(b1-3)[Fuc(a1-3)GlcNAc(b1-6)]Gal(b1-4)Glc. A digest of the protocol: as §1
The target of experiment [12] is Gal(b1-4)GlcNAc(b1-3)[Gal(b1-4)GlcNAc(b1-6)]Gal(b1-4)GlcNAc. The gist of the method:
as §1

Experiment [13] deals with Gal(b1-4)GlcNAc(b1-3)[GlcNAc(b1-6)]Gal(b1-4)GlcNAc. The gist of the method: as §1
Experiment [14] addresses Gal(b1-4)GlcNAc(b1-6)Gal(b1-4)GlcNAc. A digest of the protocol: as §1
Experiment [15] concerns the target Gal(b1-4)GlcNAc(b1-6)GalNAc. The gist of the method:
as §1

Experiment [16] addresses Gal(b1-4)GlcNAc(b1-6)[Gal(b1-3)]GalNAc. A digest of the protocol: as §1
Experiment [17] deals with Gal(b1-4)GlcNAc(b1-6)[Gal(b1-4)GlcNAc(b1-3)]GalNAc. The gist of the method: as §1
For a further experiment, the target named is Gal(b1-4)GlcNAc6P. The gist of the method: as §1
A further experiment addresses Gal(b1-6)Gal. A digest of the protocol:
as §1

The next experiment addresses Gal3S(b1-3)GalNAc. A digest of the protocol:
as §1

In the next experiment the target is Gal3S(b1-3)GlcNAc. The gist of the method: as §1
Experiment [18] concerns the target Gal3S(b1-3)[Fuc(a1-4)]GlcNAc. A digest of the protocol:
as §1

Another experiment has as its target Gal3S(b1-4)Glc. The gist of the method: as §1

We go through one molecule from the supplement of paper PMC8728848.

The list shows a part of the results.

B1: F17-L (Escherichia coli) (protein)
chain: GPDDYVPSQIAVNTSTLPGVVIGPADAHTYPRVIGELAGTSNQYVFNGGAIALMRGKFTPALPKIGSITYTFHQGNSRDSSDFDIYDIGVSGLGIIIGMAGYWPATPLVPINSSGIYIDPVGANTNPNTYNGATASFGARLFVAFVATGRLPNGYITIPTRQLGTILLEAKRTSLNNKGLTAPVMLNGGRIQVQSQTHHHHHH
As for B1, the “glycan array binding signal (z-score)” value was -0.147 in experiment [1]; -0.093 in experiment [2]; -0.099 in [3]; 0.013 in [4]; -0.152 in [5]; -0.141 in [6]. Moreover, the “glycan array binding signal (z-score)” value was -0.06 in experiment [7]; -0.113 in experiment [8]; 0.011 in [9]; -0.12 in experiment [10]; -0.166 in experiment [11]; 0.019 in [12]. Further, the “glycan array binding signal (z-score)” value in experiment [13] is -0.132; in experiment [14] it was -0.156; in [15], -0.078; in experiment [16], -0.095; in experiment [17] it was -0.158; in the experiment with Gal(b1-4)GlcNAc6P, -0.084. In addition, the “glycan array binding signal (z-score)” value with Gal(b1-6)Gal was -0.146; with Gal3S(b1-3)GalNAc it was -0.028; in the experiment with Gal3S(b1-3)GlcNAc, -0.094; in experiment [18], -0.036; in the experiment with Gal3S(b1-4)Glc it was -0.156.
